{"source": "the supplement of paper PMC8728848", "binders": {"B1": {"name": "Gal 8 (Mus musculus), Q9JL15 (protein)", "chain": "MGGSHHHHHHGMASMLSLNNLQNIIYNPIIPYVGTITEQLKPGSLIVIRGHVPKDSERFQVDFQLGNSLKPRADVAFHFNPRFKRSSCIVCNTLTQEKWGWEEITYDMPFRKEKSFEIVFMVLKNKFQVAVNGRHVLLYAHRISPEQIDTVGIYGKVNIHSIGFRFSSASALPHTLGDLQSMETSALGLTQINRENIQKPGKLQLSLPFEARLNASMGPGRTVVIKGEVNTNARSFNVDLVAGKTRDIALHLNPRLNVKAFVRNSFLQDAWGEEERNITCFPFSSGMYFEMIIYCDVREFKVAINGVHSLEYKHRFKDLSSIDTLSVDGDIRLLDVRSW"}}, "experiment_in_all_cases": "glycan array binding signal (z-score within array); higher = stronger binding", "conditions_in_all_cases": "glycan notation: IUPAC condensed, linker removed", "key": {"[1]": {"target": "Gal(b1-3)GlcNAc(b1-2)Man(a1-3)[Gal(b1-3)GlcNAc(b1-2)Man(a1-6)]Man(b1-4)GlcNAc(b1-4)GlcNAc", "procedure,_shortened": "(§1)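 From the Consortium for Functional Glycomics database, 3228 arrays were curated, keeping only those whose protein sequence was available. Binding is given as a within-array Z-score averaged across arrays sharing a protein sequence and across linkers. Negative Z-scores can be read as non-binding.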"}, "[2]": {"target": "Gal(b1-3)GlcNAc(b1-2)Man(a1-3)[Gal(b1-3)GlcNAc(b1-2)Man(a1-6)]Man(b1-4)GlcNAc(b1-4)[Fuc(a1-6)]GlcNAc", "procedure,_shortened": "as §1"}, "[3]": {"target": "Gal(b1-3)GlcNAc(b1-2)Man(a1-3)[GlcNAc(b1-4)][Gal(b1-3)GlcNAc(b1-2)Man(a1-6)]Man(b1-4)GlcNAc(b1-4)GlcNAc", "procedure,_shortened": "as §1"}, "[4]": {"target": "Gal(b1-3)GlcNAc(b1-2)[Gal(b1-3)GlcNAc(b1-6)]Man(a1-6)[Gal(b1-3)GlcNAc(b1-2)Man(a1-3)]Man(b1-4)GlcNAc(b1-4)GlcNAc", "procedure,_shortened": "as §1"}, "[5]": {"target": "Gal(b1-3)GlcNAc(b1-3)Gal(b1-3)GlcNAc", "procedure,_shortened": "as §1"}, "[6]": {"target": "Gal(b1-3)GlcNAc(b1-3)Gal(b1-4)Glc", "procedure,_shortened": "as §1"}, "[7]": {"target": "Gal(b1-3)GlcNAc(b1-3)Gal(b1-4)GlcNAc", "procedure,_shortened": "as §1"}, "[8]": {"target": "Gal(b1-3)GlcNAc(b1-3)Gal(b1-4)GlcNAc(b1-2)Man(a1-3)[Gal(b1-3)GlcNAc(b1-3)Gal(b1-4)GlcNAc(b1-2)Man(a1-6)]Man(b1-4)GlcNAc(b1-4)GlcNAc", "procedure,_shortened": "as §1"}, "[9]": {"target": "Gal(b1-3)GlcNAc(b1-3)Gal(b1-4)GlcNAc(b1-2)[Gal(b1-3)GlcNAc(b1-3)Gal(b1-4)GlcNAc(b1-6)]Man(a1-6)[Gal(b1-3)GlcNAc(b1-3)Gal(b1-4)GlcNAc(b1-2)Man(a1-3)]Man(b1-4)GlcNAc(b1-4)[Fuc(a1-6)]GlcNAc", "procedure,_shortened": "as §1"}, "[10]": {"target": "Gal(b1-3)GlcNAc(b1-3)Gal(b1-4)GlcNAc(b1-3)Gal(b1-4)GlcNAc(b1-2)[Gal(b1-3)GlcNAc(b1-3)Gal(b1-4)GlcNAc(b1-3)Gal(b1-4)GlcNAc(b1-6)]Man(a1-6)[Gal(b1-3)GlcNAc(b1-3)Gal(b1-4)GlcNAc(b1-3)Gal(b1-4)GlcNAc(b1-2)Man(a1-3)]Man(b1-4)GlcNAc(b1-4)[Fuc(a1-6)]GlcNAc", "procedure,_shortened": "as §1"}, "[11]": {"target": "Gal(b1-3)GlcNAc(b1-3)Gal(b1-4)GlcNAc(b1-6)[Gal(b1-3)GlcNAc(b1-3)]Gal(b1-4)Glc", "procedure,_shortened": "as §1"}, "[12]": {"target": "Gal(b1-3)GlcNAc(b1-3)Gal(b1-4)[Fuc(a1-3)]GlcNAc", "procedure,_shortened": "as §1"}, "[13]": {"target": "Gal(b1-3)GlcNAc(b1-3)Gal(b1-4)[Fuc(a1-3)]GlcNAc(b1-6)[Gal(b1-3)GlcNAc(b1-3)]Gal(b1-4)Glc", "procedure,_shortened": "as §1"}, "[14]": {"target": "Gal(b1-3)GlcNAc(b1-3)GalNAc", "procedure,_shortened": "as §1"}, "[15]": {"target": "Gal(b1-3)GlcNAc(b1-6)Gal(b1-4)GlcNAc", "procedure,_shortened": "as §1"}, "[16]": {"target": "Gal(b1-3)GlcNAc(b1-6)GalNAc", "procedure,_shortened": "as §1"}, "[17]": {"target": "Gal(b1-3)GlcNAc(b1-6)[Gal(b1-3)]GalNAc", "procedure,_shortened": "as §1"}, "Gal(b1-3)GlcNAc6S": {"target": "Gal(b1-3)GlcNAc6S", "procedure,_shortened": "as §1"}, "[18]": {"target": "Gal(b1-3)[Fuc(a1-4)]GlcNAc", "procedure,_shortened": "as §1"}, "[19]": {"target": "Gal(b1-3)[Fuc(a1-4)]GlcNAc(b1-2)Man", "procedure,_shortened": "as §1"}, "[20]": {"target": "Gal(b1-3)[Fuc(a1-4)]GlcNAc(b1-2)Man(a1-3)[Gal(b1-3)[Fuc(a1-4)]GlcNAc(b1-2)Man(a1-6)]Man(b1-4)GlcNAc(b1-4)[Fuc(a1-6)]GlcNAc", "procedure,_shortened": "as §1"}, "[21]": {"target": "Gal(b1-3)[Fuc(a1-4)]GlcNAc(b1-3)Gal(b1-3)[Fuc(a1-4)]GlcNAc", "procedure,_shortened": "as §1"}, "[22]": {"target": "Gal(b1-3)[Fuc(a1-4)]GlcNAc(b1-3)Gal(b1-4)[Fuc(a1-3)]GlcNAc", "procedure,_shortened": "as §1"}, "[23]": {"target": "Gal(b1-3)[Fuc(a1-4)]GlcNAc(b1-6)GalNAc", "procedure,_shortened": "as §1"}, "[24]": {"target": "Gal(b1-3)[GlcNAc(b1-6)]GalNAc", "procedure,_shortened": "as §1"}, "[25]": {"target": "Gal(b1-3)[Neu5Ac(a2-6)]GalNAc", "procedure,_shortened": "as §1"}, "[26]": {"target": "Gal(b1-3)[Neu5Ac(a2-6)]GlcNAc(b1-4)Gal(b1-4)Glc", "procedure,_shortened": "as §1"}, "[27]": {"target": "Gal(b1-3)[Neu5Ac(b2-6)]GalNAc", "procedure,_shortened": "as §1"}, "Gal(b1-4)Gal": {"target": "Gal(b1-4)Gal", "procedure,_shortened": "as §1"}, "[28]": {"target": "Gal(b1-4)GalNAc(a1-3)[Fuc(a1-2)]Gal(b1-4)GlcNAc", "procedure,_shortened": "as §1"}, "[29]": {"target": "Gal(b1-4)GalNAc(b1-3)[Fuc(a1-2)]Gal(b1-4)GlcNAc", "procedure,_shortened": "as §1"}, "Gal(b1-4)Glc": {"target": "Gal(b1-4)Glc", "procedure,_shortened": "as §1"}, "Gal(b1-4)Glc6S": {"target": "Gal(b1-4)Glc6S", "procedure,_shortened": "as §1"}, "Gal(b1-4)GlcNAc": {"target": "Gal(b1-4)GlcNAc", "procedure,_shortened": "as §1"}, "[30]": {"target": "Gal(b1-4)GlcNAc(a1-6)Gal(b1-4)GlcNAc", "procedure,_shortened": "as §1"}, "Gal(b1-4)GlcNAc(b1-2)Man": {"target": "Gal(b1-4)GlcNAc(b1-2)Man", "procedure,_shortened": "as §1"}, "[31]": {"target": "Gal(b1-4)GlcNAc(b1-2)Man(a1-3)Man(b1-4)GlcNAc(b1-4)GlcNAc", "procedure,_shortened": "as §1"}}, "note": "Some of the results follow.", "data": [{"binder": "B1", "values": [{"measurement": "glycan array binding signal (z-score)", "setting": "[1]", "result": -0.017}, {"measurement": "glycan array binding signal (z-score)", "setting": "[2]", "result": 0.227}, {"measurement": "glycan array binding signal (z-score)", "setting": "[3]", "result": 0.229}, {"measurement": "glycan array binding signal (z-score)", "setting": "[4]", "result": 0.049}, {"measurement": "glycan array binding signal (z-score)", "setting": "[5]", "result": 0.153}, {"measurement": "glycan array binding signal (z-score)", "setting": "[6]", "result": -0.166}, {"measurement": "glycan array binding signal (z-score)", "setting": "[7]", "result": -0.074}, {"measurement": "glycan array binding signal (z-score)", "setting": "[8]", "result": 0.279}, {"measurement": "glycan array binding signal (z-score)", "setting": "[9]", "result": 0.301}, {"measurement": "glycan array binding signal (z-score)", "setting": "[10]", "result": 0.921}, {"measurement": "glycan array binding signal (z-score)", "setting": "[11]", "result": -0.082}, {"measurement": "glycan array binding signal (z-score)", "setting": "[12]", "result": 0.099}, {"measurement": "glycan array binding signal (z-score)", "setting": "[13]", "result": 0.064}, {"measurement": "glycan array binding signal (z-score)", "setting": "[14]", "result": -0.128}, {"measurement": "glycan array binding signal (z-score)", "setting": "[15]", "result": -0.189}, {"measurement": "glycan array binding signal (z-score)", "setting": "[16]", "result": -0.075}, {"measurement": "glycan array binding signal (z-score)", "setting": "[17]", "result": 0.311}, {"measurement": "glycan array binding signal (z-score)", "setting": "Gal(b1-3)GlcNAc6S", "result": 0.615}, {"measurement": "glycan array binding signal (z-score)", "setting": "[18]", "result": -0.532}, {"measurement": "glycan array binding signal (z-score)", "setting": "[19]", "result": -0.508}, {"measurement": "glycan array binding signal (z-score)", "setting": "[20]", "result": -0.399}, {"measurement": "glycan array binding signal (z-score)", "setting": "[21]", "result": -0.534}, {"measurement": "glycan array binding signal (z-score)", "setting": "[22]", "result": -0.533}, {"measurement": "glycan array binding signal (z-score)", "setting": "[23]", "result": -0.515}, {"measurement": "glycan array binding signal (z-score)", "setting": "[24]", "result": -0.016}, {"measurement": "glycan array binding signal (z-score)", "setting": "[25]", "result": -0.433}, {"measurement": "glycan array binding signal (z-score)", "setting": "[26]", "result": 0.03}, {"measurement": "glycan array binding signal (z-score)", "setting": "[27]", "result": -0.548}, {"measurement": "glycan array binding signal (z-score)", "setting": "Gal(b1-4)Gal", "result": -0.543}, {"measurement": "glycan array binding signal (z-score)", "setting": "[28]", "result": 1.24}, {"measurement": "glycan array binding signal (z-score)", "setting": "[29]", "result": -0.488}, {"measurement": "glycan array binding signal (z-score)", "setting": "Gal(b1-4)Glc", "result": -0.371}, {"measurement": "glycan array binding signal (z-score)", "setting": "Gal(b1-4)Glc6S", "result": -0.157}, {"measurement": "glycan array binding signal (z-score)", "setting": "Gal(b1-4)GlcNAc", "result": -0.117}, {"measurement": "glycan array binding signal (z-score)", "setting": "[30]", "result": 0.071}, {"measurement": "glycan array binding signal (z-score)", "setting": "Gal(b1-4)GlcNAc(b1-2)Man", "result": -0.063}, {"measurement": "glycan array binding signal (z-score)", "setting": "[31]", "result": 0.07}]}]}
